The values below come from PMC6212790.

This is one part of the list. At the low end of the ranking the order means little.

In this experiment the target is T1, GST-Rok (full length) (UniProt O34857).
T1 sequence: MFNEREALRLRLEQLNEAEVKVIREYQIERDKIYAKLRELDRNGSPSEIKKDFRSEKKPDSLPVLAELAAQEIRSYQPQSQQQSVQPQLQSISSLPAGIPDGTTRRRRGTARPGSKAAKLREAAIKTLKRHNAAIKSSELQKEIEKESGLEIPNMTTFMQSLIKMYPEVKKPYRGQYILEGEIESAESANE
Put plainly: protein binding microarray.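 Further: rank score from −0.5 (least bound) to 0.5 (best bound).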 Particulars: Rok is a gene silencer of Bacillus subtilis; high values mean tight binding; most listed sequences are background and not binding sites; double strand, one strand shown.
The sequence AGACGTTC came in with a binding signal of -0.19 E-score.
Then AAAGACAG, with -0.0985 E-score; and ATCCTAAG, with -0.0403 E-score; and CCCATCCA, with -0.188 E-score.
Consider AAATGGAG, for which the binding signal is -0.0622 E-score.
As for CTTGAGTC, the binding signal was 0.00957 E-score.
Then ACGCCTAG, with -0.0308 E-score; and CATGGCCA, with -0.114 E-score.
Next, CCCTTCGA: -0.254 E-score.
Next, CCTGGGGA: -0.19 E-score; CTGGAAAC: -0.105 E-score; ACCTATAA: 0.27 E-score.
In turn, ATGGTATA displayed a binding signal of 0.381 E-score.
Next, CAGCCTAG: -0.19 E-score; CATTGCAA: 0.12 E-score; CGGACCTC: -0.43 E-score.
On to CAGATTAG, for which the binding signal was 0.083 E-score.
GTTCCTCA came in with a binding signal of -0.0987 E-score.
The sequence CACAAGGC registered a binding signal of -0.202 E-score.
Regarding AAAATATA, the binding signal was 0.417 E-score.
For CGGTTACC, the binding signal was -0.0483 E-score.
CCTATTCC registered a binding signal of -0.0525 E-score.
For CAGATCAC, the binding signal was -0.0317 E-score.
CCTGATAA returned a binding signal of 0.026 E-score.
For ACAAAGCA, the binding signal was 0.0377 E-score.
Regarding CACGCGTC, the binding signal was -0.137 E-score.
Take AAGTCTAA: the binding signal was -0.0172 E-score.
CCCCTTTA came in with a binding signal of -0.328 E-score.
Regarding CCACGCCC, the binding signal was -0.355 E-score.
Next, CTCTAGAC: -0.099 E-score; GGCAGCCC: -0.266 E-score.
Sequence ATGGATGC yielded a binding signal of -0.00761 E-score.
Take AAGTGGGT: the binding signal was found to be 0.13 E-score.
The sequence ATCTGGAA yielded a binding signal of 0.0658 E-score.
As to TAGTGTAA, the binding signal was 0.253 E-score.
Sequence GCTAGTAC had a binding signal of 0.181 E-score.
Sequence TATGGTCA came in with a binding signal of -0.0127 E-score.
Regarding AGGAAACT, the binding signal was -0.0373 E-score.
With GGCCCCAC, the binding signal was -0.333 E-score.
Next, GATCATCC: -0.211 E-score.
AGAGTCCT: the binding signal was -0.248 E-score.
Then AAGTAGTC, with 0.194 E-score; and AAGTCTAG, with 0.128 E-score.
CCTTCTTC had a binding signal of -0.327 E-score.
The sequence AGCTCCTC had a binding signal of -0.0583 E-score.
Next, CCGAATTC: 0.0736 E-score; AGAAAGTC: 0.121 E-score; CCGATACG: -0.0891 E-score.
Then GTTCTGCA, with 0.00386 E-score; and CTTCCCGA, with -0.182 E-score; and AAATCACC, with 0.0196 E-score.
In turn, ACGGTAAG showed a binding signal of 0.0516 E-score.
In turn, ATAGTGGA showed a binding signal of 0.179 E-score.
Sequence TCCGAAAA had a binding signal of -0.0826 E-score.
For the sequence ACAAACGG, the binding signal is -0.00473 E-score.
CCGTGCAG: the binding signal is -0.0228 E-score.
Then CACCGAGG, with -0.123 E-score; and GTTTTAGA, with 0.0208 E-score; and CTTCTTCC, with -0.353 E-score.
Take TATGATGA: the binding signal came out at 0.215 E-score.
Consider ATCGGAAG, for which the binding signal was -0.123 E-score.
In turn, AGGGTTTA yielded a binding signal of -0.0103 E-score.
Then CAATAGAG, with 0.0217 E-score; and ACTTCTTA, with 0.202 E-score.
Then ACAAATGC, with -0.0981 E-score.
With ATGATTAG, the binding signal is 0.0928 E-score.
Regarding ACCCGGGA, the binding signal was -0.121 E-score.
Then GAAGTTTA, with 0.0113 E-score; and AACGCGAC, with -0.106 E-score; and GGTTACGA, with -0.13 E-score.
On to AATCAACA, for which the binding signal came to 0.125 E-score.
CACGTCGG: the binding signal was -0.256 E-score.
Then CCGTTACA, with 0.106 E-score; and CTTTCTGC, with -0.0384 E-score; and AATTGCCG, with 0.164 E-score.
Next, CGAACGAC: -0.132 E-score.
Sequence AGCCGTCA showed a binding signal of -0.275 E-score.
CCCCGAAG registered a binding signal of -0.218 E-score.
In turn, AATCCCGT yielded a binding signal of -0.118 E-score.
CAATGCAG showed a binding signal of -0.0941 E-score.
TACTTTAA returned a binding signal of 0.308 E-score.
GCACATAC yielded a binding signal of -0.0928 E-score.
For the sequence CCATGGCA, the binding signal is -0.142 E-score.
On to CTATTCTC, for which the binding signal was -0.106 E-score.
In the case of ACGATGCT, the binding signal came out at 0.156 E-score.
Sequence GGTTGACA displayed a binding signal of -0.0593 E-score.
Sequence CCATACTC registered a binding signal of -0.0138 E-score.
In the case of GAGCTACA, the binding signal is 0.0398 E-score.
In turn, CAGGAGGG came in with a binding signal of -0.391 E-score.
As to TAGGAGAA, the binding signal was determined as 0.118 E-score.
As to AGCTTTCG, the binding signal is -0.0148 E-score.
Sequence GTTTGCGA showed a binding signal of 0.0745 E-score.
As to TGTAGTAA, the binding signal came out at 0.349 E-score.
CCCACCTA gave a binding signal of -0.2 E-score.
In turn, ATCACTTG registered a binding signal of 0.109 E-score.
As for AGCCACCA, the binding signal is -0.0885 E-score.
In turn, CCTGGAGC gave a binding signal of -0.034 E-score.
In the case of CGAATTCA, the binding signal worked out at 0.109 E-score.
In turn, CCTAGCCC registered a binding signal of -0.254 E-score.
Then ACTTTTCG, with 0.215 E-score.
On to ACGGATCT, for which the binding signal was found to be 0.096 E-score.
As to AATAGTAT, the binding signal was determined as 0.292 E-score.
In turn, CCGCGCAG yielded a binding signal of -0.266 E-score.
Then CAGGGGAG, with -0.46 E-score; and ACGAGTGC, with -0.0689 E-score; and CCCCCGCA, with -0.399 E-score.
As for ACGATTAA, the binding signal was 0.041 E-score.
For ACCCGGCC, the binding signal is -0.197 E-score.
As to AGAGTGTA, the binding signal came out at 0.011 E-score.
